{"source": "PubChem BioAssay AID1745845", "about": "(National Center for Advancing Translational Sciences (NCATS), 2022)", "note": "In all, about 360,000 compounds went through this assay and about 2,600 (0.72%) were called active. The shares of active, inactive and inconclusive entries below differ from those in the screen. Calls come from the whole dose curve; as a rule, active = well fitted inhibition curve with a large enough effect; inconclusive = small, poorly fitted or top-dose-only effect; inactive = no such curve, though single readings can be large or run the other way. Potencies of inconclusive entries are doubtful fits and often do not repeat. % is set by controls: 0 for no effect and ±100 for the full control effect; potency is the fitted concentration of half-maximal effect; tags give direction and shape of the fitted curve.", "data": [{"experiment": "Primary qHTS for Inhibitors of ATXN expression; note: nearly all actives have a fitted effect of over 55% in size", "details": "HEK-293 ATXN2-luciferase reporter, luminescence, 24 h; activity change, negative = inhibition: at 57 µM (top of the series)", "how_it_was_run": "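ATXN2-luciferase reporter cells (luciferase flanked by upstream and downstream ATXN2 gene portions) were treated 24 h at 37 °C with compounds at up to 57 uM. SteadyGlo luminescence gave expression; GF-AFC fluorescence gave viability.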", "values": [{"molecule": "COc1ccc(CCNc2oc(COc3cccc(C)c3)nc2C#N)cc1OC", "Potency": "inconclusive: 31.6 µM [inhibitor, partial curve, poor fit]"}, {"molecule": "CCCOc1ccc(F)cc1-c1cc(C(=O)Nc2ccc(F)cc2)[nH]n1", "Potency": "inconclusive: 39.8 µM [inhibitor, partial curve, poor fit]"}, {"molecule": "Cc1onc(-c2c(F)cccc2Cl)c1C(=O)NCc1ccccc1", "activity change, negative = inhibition": "inconclusive: -48.5% [inhibitor]"}, {"molecule": "Cc1cc(O)c(C(=O)/C=C/c2ccccc2)c(=O)o1", "activity change, negative = inhibition": "inactive: 11.8%"}, {"molecule": "COc1ccc(C(=O)N2CCN(c3ccc([N+](=O)[O-])c(NCCc4ccc(OC)c(OC)c4)c3)CC2)cc1", "activity change, negative = inhibition": "inactive: -31%"}, {"molecule": "Cc1nc([N+](=O)[O-])c(Br)n1CC(=O)c1ccccc1", "activity change, negative = inhibition": "inactive: -10.8%"}, {"molecule": "O=C(Nc1ccc(-c2csc(Nc3cccc(C(F)(F)F)c3)n2)cc1)c1cccc(C(F)(F)F)c1", "Potency": "inconclusive: 31.6 µM [inhibitor, single point]"}, {"molecule": "COc1cc(C2C=C(C34CC5CC(CC(C5)C3)C4)NC(=S)N2)cc(OC)c1OC", "note": "(configuration not stated)", "activity change, negative = inhibition": "inactive: -21.4%"}, {"molecule": "O=S(=O)(Nc1nc2ccccc2nc1Cl)c1cccc(C(F)(F)F)c1", "Potency": "inconclusive: 1.68 µM [inhibitor, full curve, poor fit]"}, {"molecule": "C=CCN(CC=C)S(=O)(=O)c1ccc(C(=O)Nc2sc3c(c2C(N)=O)CCCCC3)cc1", "Potency": "inconclusive: 15.8 µM [inhibitor, partial curve, poor fit]"}, {"molecule": "Cc1ccc(N2CCN(C(=O)c3c(C)oc4ncnc(N5CCCCC5)c34)CC2)c(C)c1", "Potency": "inconclusive: 39.8 µM [inhibitor, single point]"}, {"molecule": "CC(C)(C)c1ccc(C(O)c2ncc(-c3ccccc3Cl)[nH]2)cc1", "note": "(configuration not stated)", "Potency": "inconclusive: 39.8 µM [inhibitor, single point]"}, {"molecule": "C#CCOCCOCCOCCNc1nc(N2CCN(C(=O)CCCCCCCCCCNC(=O)[C@H]([C@@H](C)CC)n3cc(CCCCN=C(N)N)nn3)CC2)nc(N2CCN(C(=O)CCCCCCCCCCNC(=O)[C@H](CO)n3cc(CCCCCN)nn3)CC2)n1", "Potency": "active: 28.2 µM"}, {"molecule": "CC(=O)CCc1oc2ccc([N+](=O)[O-])cc2c1-c1ccc(C)o1", "activity change, negative = inhibition": "inconclusive: -40.3% [inhibitor]"}, {"molecule": "O=c1cc(O)c(-c2ccc(Cl)cc2)c(Cl)[nH]1", "activity change, negative = inhibition": "inactive: -10.2%"}, {"molecule": "O=C(CCN1CCc2ccccc21)c1ccc2c(c1)OCCO2", "activity change, negative = inhibition": "inactive: -30.4%"}, {"molecule": "O=c1nc(N/N=C/C=C/c2ccccc2)cn[nH]1", "Potency": "inconclusive: 3.16 µM [inhibitor, full curve]"}, {"molecule": "CCOC(=O)N(C)c1c(CC)nc2c(OCc3ccc(C(F)(F)F)cc3)cccn12", "Potency": "inconclusive: 25.1 µM [inhibitor, single point]"}, {"molecule": "Cc1nc(-c2ccc(Cl)cc2)sc1CCNC(=O)c1cccs1", "Potency": "inconclusive: 39.8 µM [inhibitor, single point]"}, {"molecule": "Cc1ccc(C)[n+](CC(=O)c2ccc(-c3ccccc3)cc2)c1", "activity change, negative = inhibition": "inconclusive: -40.4% [inhibitor]"}, {"molecule": "COc1cc(C(CCN2CCCCC2)c2c(OC)cc(OC)c3c(-c4ccccc4)cc(=O)oc23)cc(OC)c1OC", "note": "(configuration not stated)", "Potency": "inconclusive: 39.8 µM [inhibitor, single point]"}, {"molecule": "Cc1nn(CCC(=O)N2CCN(S(=O)(=O)c3ccccc3)CC2)c(C)c1C", "activity change, negative = inhibition": "inactive: -7.88%"}, {"molecule": "Cc1ccc(-n2nc(C)c(NC(=O)CCl)c2C)cc1C", "Potency": "inconclusive: 39.8 µM [inhibitor, single point]"}, {"molecule": "CC(C)C[C@H]1CNC(=S)N1C[C@H]1CCCN1C[C@H](Cc1ccc(O)cc1)N1C[C@H](Cc2ccc(O)cc2)N(CC2CCCCC2)C1=S", "Potency": "active: 28.2 µM"}, {"molecule": "COc1cccc(OCC(O)CN2CCC(CN3C(=O)c4cccc5cccc(c45)C3=O)CC2)c1", "note": "(configuration not stated)", "Potency": "inconclusive: 25.1 µM [inhibitor, partial curve]"}, {"molecule": "C(=N\\n1cnnc1)/c1ccc(OCc2ccccc2)cc1", "activity change, negative = inhibition": "inactive: 29.8%"}, {"molecule": "Cc1cccc(NC(=O)CSc2c(C)cnc3c2c(=O)n(C)c(=O)n3C)c1C", "activity change, negative = inhibition": "inactive: -3.45%"}, {"molecule": "O=C(N/N=C/c1c(O)ccc2ccccc12)c1cccnc1", "Potency": "inconclusive: 5.62 µM [inhibitor, partial curve, poor fit]"}, {"molecule": "Cc1cc(C)cc(NC(=O)C2CCCN(C(=O)c3cnn(-c4ccccc4)c3-n3cccc3)C2)c1", "note": "(configuration not stated)", "Potency": "inconclusive: 22.4 µM [inhibitor, single point]"}, {"molecule": "CCC(C)[C@H](N)c1nnc(SCC(=O)c2ccc(Cl)cc2)o1", "note": "(some centres not stated)", "Potency": "inconclusive: 2.51 µM [inhibitor, full curve, poor fit]"}, {"molecule": "COc1ccccc1CN1C[C@@H]2C[C@@H](C3=Cc4cc(Cl)ccc4OC3)N3CCC[C@@]23C1=O", "Potency": "inconclusive: 20 µM [inhibitor, partial curve]"}, {"molecule": "CCOC(=O)c1c(CSC(=N)N)n(C)c2cc(Br)c(OC(C)=O)cc12", "Potency": "inconclusive: 39.8 µM [inhibitor, partial curve, poor fit]"}, {"molecule": "CCc1nnc(NC(=O)C(=O)c2cc(C)n(-c3ccccc3)c2C)s1", "Potency": "inconclusive: 5.01 µM [inhibitor, single point]"}, {"molecule": "CCc1ccc(C(=O)C[n+]2cccc3cc(OC)ccc32)cc1", "Potency": "inconclusive: 29.9 µM [inhibitor, single point]"}, {"molecule": "NC(CCc1ccccc1)c1csc(Nc2cnccn2)n1", "note": "(configuration not stated)", "Potency": "inconclusive: 31.6 µM [inhibitor, single point]"}, {"molecule": "CC(=O)/C=C/n1c(=S)oc2ccccc21", "Potency": "inconclusive: 8.44 µM [inhibitor, full curve, poor fit]"}, {"molecule": "Cc1ccc(C(=O)N/C(=C\\c2ccc(-c3ccc(Br)cc3)o2)C(=O)NCCCN(C)C)cc1", "Potency": "active: 10 µM"}, {"molecule": "CCC1(C)Cc2c(sc3c2c(=O)n(C)c2nnc(SCc4ccc5c(c4)OCO5)n32)CO1", "note": "(configuration not stated)", "Potency": "inconclusive: 39.8 µM [inhibitor, single point]"}, {"molecule": "Cc1nn(Cc2c(Cl)cccc2Cl)c(Cl)c1/C=C/C(=O)OCC(=O)NCC(F)(F)F", "Potency": "inconclusive: 10 µM [inhibitor, partial curve]"}, {"molecule": "COc1ccc(OC)c(NC(=O)Nc2nc(CN)cs2)c1", "activity change, negative = inhibition": "inactive: -6.96%"}, {"molecule": "CCN(CC)S(=O)(=O)c1ccc(C)c(C)c1", "activity change, negative = inhibition": "inactive: -1.05%"}, {"molecule": "COc1cc(/C=N/n2nnnc2Nc2ccccc2)cc(OC)c1OC", "activity change, negative = inhibition": "inactive: 4.55%"}, {"molecule": "COc1ccc(C(=O)c2oc3ccccc3c2NC(=O)COc2cccc(C)c2C)cc1", "activity change, negative = inhibition": "inactive: 1.39%"}, {"molecule": "CCn1c(=O)cc(OCC(=O)N2CCN(C(=O)c3ccco3)CC2)c2ccccc21", "activity change, negative = inhibition": "inactive: 39%"}, {"molecule": "COc1cc(/C=C/CN2CCN(CCC(C)C)C(CCO)C2)ccc1O", "note": "(configuration not stated)", "Potency": "inconclusive: 0.267 µM [inhibitor, partial curve, poor fit]"}, {"molecule": "CN1C(=O)/C(=C\\C(=O)c2cccs2)c2ccccc21", "Potency": "inconclusive: 25.1 µM [inhibitor, single point]"}, {"molecule": "O=C(N/N=C/c1cc(Br)c(O)c(Br)c1O)c1ccc2c(c1)OCCO2", "Potency": "inconclusive: 10 µM [inhibitor, partial curve]"}, {"molecule": "CC(=O)Oc1ccc2c(C)cc(=O)[nH]c2c1", "activity change, negative = inhibition": "inactive: 1.13%"}, {"molecule": "COc1cc(-c2noc(CCC(=O)Nc3cc(C)ccc3C)n2)cc(OC)c1OC", "activity change, negative = inhibition": "inactive: -3.56%"}, {"molecule": "COc1ccc(CCN(C)C(=O)c2cc(S(=O)(=O)NCc3ccccc3)ccc2C)cc1OC", "Potency": "inconclusive: 4.47 µM [inhibitor, partial curve, poor fit]"}, {"molecule": "CCOc1ccc(-c2nnc(N3CCCCC3)c3ccccc23)cc1", "Potency": "inconclusive: 39.8 µM [inhibitor, single point]"}, {"molecule": "COc1ccc(C2CC(c3ccccc3)=NN2C(=O)CN2CCN(Cc3ccccc3)CC2)cc1", "note": "(configuration not stated)", "Potency": "inconclusive: 10.6 µM [inhibitor, partial curve, poor fit]"}, {"molecule": "CCn1c(SCC(=O)Nc2ncc(C(F)(F)F)cc2Cl)nnc1-c1cccc(C)c1", "activity change, negative = inhibition": "inactive: -5.87%"}, {"molecule": "CC(OC(=O)CC1CCCC1)C(=O)Nc1ccc(S(N)(=O)=O)cc1", "note": "(configuration not stated)", "activity change, negative = inhibition": "inactive: 8.87%"}, {"molecule": "COc1cccc(CN2CCC(C(=O)Nc3ccc(-c4cccc(C)c4)cc3)CC2)c1O", "Potency": "inconclusive: 37.7 µM [inhibitor, single point]"}, {"molecule": "Cn1c(=O)n(C)c2cc(N3CCOCC3)c(NC(=O)c3ccccc3Br)cc21", "activity change, negative = inhibition": "inactive: -5.58%"}, {"molecule": "CCOC(=O)c1ccc(NC(=O)c2c(NCc3cccs3)sc3c2CCCC3)cc1", "Potency": "inconclusive: 39.8 µM [inhibitor, single point]"}, {"molecule": "CC(C)(C)SCCNS(=O)(=O)c1ccc(F)cc1", "activity change, negative = inhibition": "inactive: 0.277%"}, {"molecule": "COC(=O)c1ccc(/C=C2/SC(=S)N(CCCC(=O)Nc3ccccn3)C2=O)cc1", "Potency": "inconclusive: 14.1 µM [inhibitor, partial curve, poor fit]"}, {"molecule": "Cc1sc2nc(C3CC3)nc(N3CCN(C(=O)c4ccc(F)cc4)CC3)c2c1C", "Potency": "inconclusive: 31.6 µM [inhibitor, partial curve, poor fit]"}, {"molecule": "COc1ccc(-c2nc3scc(-c4ccc(OC)c(OC)c4)c3c(=O)o2)cc1", "Potency": "inconclusive: 39.8 µM [inhibitor, single point]"}, {"molecule": "N=C1S/C(=C\\c2ccc(-c3cccc(Cl)c3)o2)C(=O)N1c1nccs1", "Potency": "active: 3.55 µM"}, {"molecule": "CCc1ccc(NC(=O)Cn2c3[n+](c4c(F)c(F)ccc42)CCCCC3)cc1", "activity change, negative = inhibition": "inactive: -17.4%"}, {"molecule": "O=C(c1ccc(C=Cc2n[nH]c3ccccc23)cc1)N1CCNCC1", "Potency": "inconclusive: 48.5 µM [inhibitor, single point]"}, {"molecule": "CCC(CO)NS(=O)(=O)c1cc(-c2nn(C)c(=O)c3ccccc23)ccc1C", "note": "(configuration not stated)", "activity change, negative = inhibition": "inactive: -19.3%"}, {"molecule": "COCOCCn1cc(CN2CCS(=O)(=O)N(Cc3ccc(-c4ccccc4)cc3)C(CC(C)C)C2=O)nn1", "note": "(configuration not stated)", "Potency": "inconclusive: 35.5 µM [inhibitor, single point]"}, {"molecule": "COC(=O)C1=C(C)NC(C)=C(C(=O)OC)C1c1ccccc1[N+](=O)[O-]", "Potency": "inconclusive: 31.6 µM [inhibitor, partial curve]"}]}]}
